The supplement of paper PMC3334620
The full ranking holds about 33,000 sequences; the median of “E-score (-0.5 to 0.5)” is about -0.043, and the highest 2% start at about 0.37. The list shows a part of the results.

Target: T1, Upc2 (UniProt Q12151)
T1 sequence: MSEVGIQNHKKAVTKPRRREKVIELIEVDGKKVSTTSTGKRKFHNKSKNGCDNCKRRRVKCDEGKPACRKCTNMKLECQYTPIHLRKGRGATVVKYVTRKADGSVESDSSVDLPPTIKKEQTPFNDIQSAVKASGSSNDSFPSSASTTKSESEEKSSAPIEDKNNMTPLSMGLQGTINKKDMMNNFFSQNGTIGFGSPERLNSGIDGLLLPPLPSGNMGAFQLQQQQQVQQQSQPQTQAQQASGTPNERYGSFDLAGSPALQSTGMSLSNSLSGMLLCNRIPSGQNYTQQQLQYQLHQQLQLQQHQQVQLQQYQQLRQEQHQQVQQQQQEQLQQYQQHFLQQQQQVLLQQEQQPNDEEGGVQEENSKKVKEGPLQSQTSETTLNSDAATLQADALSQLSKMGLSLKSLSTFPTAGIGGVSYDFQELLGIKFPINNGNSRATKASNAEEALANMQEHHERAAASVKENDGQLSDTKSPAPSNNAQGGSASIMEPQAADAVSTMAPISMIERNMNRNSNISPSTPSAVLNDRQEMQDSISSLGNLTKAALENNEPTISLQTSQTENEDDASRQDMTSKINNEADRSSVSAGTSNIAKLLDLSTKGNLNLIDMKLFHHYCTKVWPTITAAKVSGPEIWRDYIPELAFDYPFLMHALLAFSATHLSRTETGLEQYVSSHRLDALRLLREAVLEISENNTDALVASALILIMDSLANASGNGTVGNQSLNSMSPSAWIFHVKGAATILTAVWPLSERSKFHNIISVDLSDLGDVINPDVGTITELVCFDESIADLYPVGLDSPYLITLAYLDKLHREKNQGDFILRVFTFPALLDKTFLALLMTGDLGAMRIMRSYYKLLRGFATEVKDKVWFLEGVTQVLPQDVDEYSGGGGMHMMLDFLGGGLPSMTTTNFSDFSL
Assay: PBM E-score (8-mer binding enrichment) (E-score (-0.5 to 0.5)); higher = stronger / more preferred TF binding; most listed sequences are background and not binding sites
Conditions: protein concentration: 200 nM; construct: GST-full length
Procedure, shortened: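 Yeast transcription factors carrying a GST tag, as full-length proteins or DNA-binding domains, were produced by PURExpress in vitro transcription/translation. About 100-200 nM protein was applied to universal all-10-mer Agilent arrays, double-stranded by primer extension on fresh or once-stripped slides. Bound protein was detected with fluorescent anti-GST, and scans were normalised with masliner. The Universal PBM Analysis Suite gave each ungapped eight-base word, pooled with its reverse complement, an E-score, a modified Wilcoxon-Mann-Whitney statistic.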

Sequence | PBM E-score
AGTAGTAA | 0.0705
AGATATCG | 0.0804
AGGGACCG | -0.175
CACTGTGA | -0.094
CTCTTGAA | -0.225
TAGTGGCA | -0.0752
AAAGGCAG | -0.0656
CAACGATC | 0.11
TCAACGGA | 0.0819
ATCATCGA | -0.176
TACGCAAA | 0.263
ATAGAACG | 0.253
AGTCGAGA | -0.0448
CGTTCATA | 0.361
CAACCTGA | -0.12
CACGATAA | 0.074
CATGCCGC | 0.0567
GGTCGGCA | -0.0973
AAGAGGCT | -0.257
ACATCTTC | -0.077
GATCGCGC | 0.115
TCCCTAGA | -0.106

Sequence | PBM E-score
ATTTATCG | 0.201
CGAGTGCC | -0.0763
AACAAGGA | 0.0181
GGAGCTCC | -0.228
CCTGGGCG | -0.186
ACCGTTAA | 0.289
GAGTTTGA | -0.0818
ACGGAAAC | 0.26
ACCTGGCC | -0.207
CATATACG | 0.463
CCGGGTCA | -0.0975
CACATTTA | -0.083
CAGAAAGA | -0.00388
TGAAATCA | -0.103
GCATACTA | -0.132
CCTACCAG | -0.143
CCTAGCTA | -0.232
GAACCCCA | -0.113
CGACTAAC | 0.0797
ATACAACC | 0.0511
ACCGATGA | 0.0812
CCCATTCA | -0.145

Sequence | PBM E-score
ACTTGAAA | -0.069
AGGTTGTG | -0.275
ATGGCCGC | -0.101
CACGTAGA | 0.0732
CGTTTGGC | 0.409
CTCGCATC | 0.247
AGCATGAA | -0.136
ATGACCTC | -0.0652
AATGGTCT | -0.213
ACTCAGCG | -0.141
GGGCAAGA | 0.0892
CACGGCTC | -0.128
GCGTACAA | 0.324
ACTATGCG | 0.293
CTTCAGAC | -0.123
CTATGTTA | -0.113
CCGTTTAC | 0.451
CATGTACA | -0.00834
GATTAGAA | 0.0377
GTAGCCAC | -0.15
GATGATGA | -0.118
AAGATTTG | -0.0159

Sequence | PBM E-score
CAACGTCC | -0.176
AAGATTGT | 0.00873
ATTACTCC | -0.134
AGGGGAAA | -0.215
AACTGCGC | -0.0647
CCGTGACG | -0.18
AATTGGCG | 0.105
CCTCGTTA | 0.399
GCGGCTTA | -0.188
GTCAAATA | 0.0795
CTTATATA | 0.207
CGCACTTC | -0.0494
AAATTACA | 0.179
GAGTAGGA | -0.198
CAACTAGA | -0.153
AAGATATC | -0.102
CTATTTGC | -0.106
TCGATTAA | 0.305
AGTGCGCC | -0.168
CGGCTATA | 0.0456
